According to the supplement of paper PMC8728848:
Some of the results follow.

Legend:
Test in all cases: glycan array binding signal (z-score within array); higher = stronger binding
Conditions in all cases: glycan notation: IUPAC condensed, linker removed
[1] = biological target: Fuc(a1-2)Gal(b1-4)GlcNAc(b1-3)Gal(b1-4)GlcNAc(b1-3)Gal(b1-4)GlcNAc
In short: (§1)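 The binding signal is a Z-score computed within each array and averaged over linkers. Arrays of the same protein sequence at different concentrations or buffers were also averaged together. Data originate from 3228 arrays in the Consortium for Functional Glycomics database, kept only where the protein sequence was available.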

[2] = biological target: Fuc(a1-2)Gal(b1-4)GlcNAc(b1-3)GalNAc
In short: as §1

[3] = biological target: Fuc(a1-2)Gal(b1-4)GlcNAc(b1-3)[Fuc(a1-2)Gal(b1-4)GlcNAc(b1-6)]GalNAc
In short: as §1

[4] = biological target: Fuc(a1-2)Gal(b1-4)GlcNAc(b1-3)[Fuc(a1-3)[Gal(b1-4)]GlcNAc(b1-6)]Gal(b1-4)Glc
In short: as §1

[5] = biological target: Fuc(a1-2)Gal(b1-4)GlcNAc(b1-6)GalNAc
In short: as §1

[6] = biological target: Fuc(a1-2)Gal(b1-4)GlcNAc6S
In short: as §1

[7] = biological target: Fuc(a1-2)Gal(b1-4)[Fuc(a1-3)]GlcNAc
In short: as §1

[8] = biological target: Fuc(a1-2)Gal(b1-4)[Fuc(a1-3)]GlcNAc(b1-2)Man(a1-3)[Fuc(a1-2)Gal(b1-4)[Fuc(a1-3)]GlcNAc(b1-2)Man(a1-6)]Man(b1-4)GlcNAc(b1-4)[Fuc(a1-6)]GlcNAc
In short: as §1

[9] = biological target: Fuc(a1-2)Gal(b1-4)[Fuc(a1-3)]GlcNAc(b1-2)[Fuc(a1-2)Gal(b1-4)[Fuc(a1-3)]GlcNAc(b1-4)]Man(a1-3)[Fuc(a1-2)Gal(b1-4)[Fuc(a1-3)]GlcNAc(b1-2)Man(a1-6)]Man(b1-4)GlcNAc(b1-4)GlcNAc
In short: as §1

[10] = biological target: Fuc(a1-2)Gal(b1-4)[Fuc(a1-3)]GlcNAc(b1-3)Gal(b1-4)[Fuc(a1-3)]GlcNAc
In short: as §1

[11] = biological target: Fuc(a1-2)Gal(b1-4)[Fuc(a1-3)]GlcNAc(b1-3)Gal(b1-4)[Fuc(a1-3)]GlcNAc(b1-3)Gal(b1-4)[Fuc(a1-3)]GlcNAc
In short: as §1

[12] = biological target: Fuc(a1-2)Gal(b1-4)[Fuc(a1-3)]GlcNAc(b1-3)GalNAc
In short: as §1

[13] = biological target: Fuc(a1-2)Gal(b1-4)[Fuc(a1-3)]GlcNAc(b1-3)[Neu5Ac(a2-6)Gal(b1-4)GlcNAc(b1-6)]Gal(b1-4)Glc
In short: as §1

[14] = biological target: Fuc(a1-2)Gal3S(b1-4)GlcNAc
In short: as §1

[15] = biological target: Fuc(a1-2)Gal6S(b1-3)GlcNAc
In short: as §1

[16] = biological target: Fuc(a1-2)Gal6S(b1-3)GlcNAc6S
In short: as §1

Fuc(a1-2)Gal6S(b1-4)Glc = biological target: Fuc(a1-2)Gal6S(b1-4)Glc
In short: as §1

[17] = biological target: Fuc(a1-2)Gal6S(b1-4)Glc6S
In short: as §1

Fuc(a1-2)[Gal(a1-3)]Gal = biological target: Fuc(a1-2)[Gal(a1-3)]Gal
In short: as §1

[18] = biological target: Fuc(a1-2)[Gal(a1-3)]Gal(b1-3)GalNAc
In short: as §1

[19] = biological target: Fuc(a1-2)[Gal(a1-3)]Gal(b1-3)GalNAc(b1-3)Gal(a1-4)Gal(b1-4)Glc
In short: as §1

[20] = biological target: Fuc(a1-2)[Gal(a1-3)]Gal(b1-3)GlcNAc
In short: as §1

[21] = biological target: Fuc(a1-2)[Gal(a1-3)]Gal(b1-3)GlcNAc(b1-2)Man(a1-3)[Fuc(a1-2)[Gal(a1-3)]Gal(b1-3)GlcNAc(b1-2)Man(a1-6)]Man(b1-4)GlcNAc(b1-4)GlcNAc
In short: as §1

[22] = biological target: Fuc(a1-2)[Gal(a1-3)]Gal(b1-3)GlcNAc(b1-2)Man(a1-3)[Fuc(a1-2)[Gal(a1-3)]Gal(b1-3)GlcNAc(b1-2)Man(a1-6)]Man(b1-4)GlcNAc(b1-4)[Fuc(a1-6)]GlcNAc
In short: as §1

[23] = biological target: Fuc(a1-2)[Gal(a1-3)]Gal(b1-3)GlcNAc(b1-3)GalNAc
In short: as §1

[24] = biological target: Fuc(a1-2)[Gal(a1-3)]Gal(b1-3)GlcNAc(b1-6)GalNAc
In short: as §1

[25] = biological target: Fuc(a1-2)[Gal(a1-3)]Gal(b1-4)Glc
In short: as §1

[26] = biological target: Fuc(a1-2)[Gal(a1-3)]Gal(b1-4)GlcNAc
In short: as §1

[27] = biological target: Fuc(a1-2)[Gal(a1-3)]Gal(b1-4)GlcNAc(b1-2)Man
In short: as §1

[28] = biological target: Fuc(a1-2)[Gal(a1-3)]Gal(b1-4)GlcNAc(b1-2)Man(a1-3)[Fuc(a1-2)[Gal(a1-3)]Gal(b1-4)GlcNAc(b1-2)Man(a1-6)]Man(b1-4)GlcNAc(b1-4)GlcNAc
In short: as §1

B1: OGAN (protein)
chain: MVQKESQATLEERESELSSNPAASAGASLEPPAAPAPGEDNPAGAGGAAVAGAAGGARRFLCGVVEGFYGRPWVMEQRKELFRRLQKWELNTYLYAPKDDYKHRMFWREMYSVEEAEQLMTLISAAREYEIEFIYAISPGLDITFSNPKEVSTLKRKLDQVSQFGCRSFALLFNDIDHNMCAADKEVFSSFAHAQVSITNEIYQYLGEPETFLFCPTEYCGTFCYPNVSQSPYLRTVGEKLLPGIEVLWTGPKVVSKEIPVESIEEVSKIIKRAPVIWDNIHANDYDQKRLFLGPYKGRSTELIPRLKGVLTNPNCEFEANYVAIHTLATWYKSNMNGVRKDVVMTDSEDSTVSIQIKLENEGSDEDIETDVLYSPQMALKLALTEWLQEFGVPHQY
- glycan array binding signal (z-score) [1]: -0.047
- glycan array binding signal (z-score) [2]: -0.04
- glycan array binding signal (z-score) [3]: -0.036
- glycan array binding signal (z-score) [4]: -0.081
- glycan array binding signal (z-score) [5]: -0.084
- glycan array binding signal (z-score) [6]: -0.096
- glycan array binding signal (z-score) [7]: -0.061
- glycan array binding signal (z-score) [8]: -0.067
- glycan array binding signal (z-score) [9]: -0.065
- glycan array binding signal (z-score) [10]: -0.005
- glycan array binding signal (z-score) [11]: -0.016
- glycan array binding signal (z-score) [12]: -0.065
- glycan array binding signal (z-score) [13]: -0.062
- glycan array binding signal (z-score) [14]: -0.022
- glycan array binding signal (z-score) [15]: -0.094
- glycan array binding signal (z-score) [16]: 0.263
- glycan array binding signal (z-score) (Fuc(a1-2)Gal6S(b1-4)Glc): -0.071
- glycan array binding signal (z-score) [17]: -0.041
- glycan array binding signal (z-score) (Fuc(a1-2)[Gal(a1-3)]Gal): -0.035
- glycan array binding signal (z-score) [18]: 0.104
- glycan array binding signal (z-score) [19]: -0.095
- glycan array binding signal (z-score) [20]: -0.071
- glycan array binding signal (z-score) [21]: -0.081
- glycan array binding signal (z-score) [22]: -0.072
- glycan array binding signal (z-score) [23]: -0.049
- glycan array binding signal (z-score) [24]: -0.062
- glycan array binding signal (z-score) [25]: -0.068
- glycan array binding signal (z-score) [26]: -0.076
- glycan array binding signal (z-score) [27]: -0.067
- glycan array binding signal (z-score) [28]: -0.027
